Hit rate of the full screen: of about 310,000 compounds, about 14,000 (4.5%) showed an effect of 50% or more. The effect is printed as a negative number. This is one part of the list.
target: human ether-à-go-go-related gene (hERG) potassium channel (human, UniProt Q12809); experiment: primary screen, population patch clamp on CHO cells stably expressing hERG
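Further: peak tail current of the secondary pulse compared with the same well before compound.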

human ether-à-go-go-related gene (hERG) potassium channel, sequence (Q12809 whole entry, looked up): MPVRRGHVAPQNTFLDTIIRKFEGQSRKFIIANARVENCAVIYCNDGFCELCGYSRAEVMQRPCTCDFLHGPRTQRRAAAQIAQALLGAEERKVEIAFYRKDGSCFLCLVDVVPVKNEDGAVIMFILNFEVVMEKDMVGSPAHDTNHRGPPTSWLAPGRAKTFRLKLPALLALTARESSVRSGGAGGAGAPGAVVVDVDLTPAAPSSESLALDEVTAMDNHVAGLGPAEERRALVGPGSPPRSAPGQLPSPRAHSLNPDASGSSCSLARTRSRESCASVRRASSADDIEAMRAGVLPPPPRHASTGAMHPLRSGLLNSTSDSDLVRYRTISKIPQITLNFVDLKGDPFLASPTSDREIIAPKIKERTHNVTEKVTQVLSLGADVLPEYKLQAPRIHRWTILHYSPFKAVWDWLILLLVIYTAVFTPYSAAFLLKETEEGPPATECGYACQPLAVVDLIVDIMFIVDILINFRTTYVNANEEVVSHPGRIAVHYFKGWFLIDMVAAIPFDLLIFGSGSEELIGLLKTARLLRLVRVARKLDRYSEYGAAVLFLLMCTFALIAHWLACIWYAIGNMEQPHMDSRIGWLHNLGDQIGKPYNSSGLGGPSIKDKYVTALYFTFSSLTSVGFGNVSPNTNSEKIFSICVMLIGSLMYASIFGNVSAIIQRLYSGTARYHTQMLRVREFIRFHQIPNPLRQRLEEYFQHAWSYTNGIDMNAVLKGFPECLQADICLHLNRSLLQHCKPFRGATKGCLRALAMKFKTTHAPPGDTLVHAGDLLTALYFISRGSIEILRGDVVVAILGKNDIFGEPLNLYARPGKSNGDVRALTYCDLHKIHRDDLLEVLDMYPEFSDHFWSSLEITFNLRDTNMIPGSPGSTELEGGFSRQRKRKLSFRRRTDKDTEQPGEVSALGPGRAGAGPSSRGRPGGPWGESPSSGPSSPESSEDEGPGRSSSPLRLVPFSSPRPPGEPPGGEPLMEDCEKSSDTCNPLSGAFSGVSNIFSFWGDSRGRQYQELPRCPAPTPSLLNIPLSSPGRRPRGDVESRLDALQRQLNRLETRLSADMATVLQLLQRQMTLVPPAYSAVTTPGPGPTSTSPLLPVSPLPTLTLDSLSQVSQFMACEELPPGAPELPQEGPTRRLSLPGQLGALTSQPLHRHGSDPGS

| Compound | hERG current change (%, negative = inhibition) at 10uM |
| --- | --- |
| COc1ccc(C(=O)OCC(=O)NCCCc2ccccc2)c(OC)c1 | 4.47% |
| COc1ccc(Nc2cc(C)c3ccc(O)cc3n2)cc1 | -58.4% |
| O=c1[nH]c(CO)nc2c1oc1ccccc12 | 14.2% |
| O=C(NC1CCCCC1)NC12CC3CC(CC(C3)C1)C2 | 19.8% |
| COc1cc(NC(=S)NC2CC(C)(C)NC(C)(C)C2)cc(OC)c1 | 2.03% |
| CCOC(=O)Cc1c(C)[nH]c(=S)[nH]c1=O | 24.8% |
| CC(C)CCOc1ccc(C(=O)NN2C(=O)NC3(CCCCC3)C2=O)cc1 | 4.04% |
| CN(C)C(=O)NC(Nc1ccc(Cl)cc1Cl)C(Cl)(Cl)Cl (stereo not drawn) | -18.9% |
| CCOC(=O)N1CCN(C(=O)C(NC(=O)c2ccc(CC)cc2)C(C)C)CC1 (stereo not drawn) | -19.5% |
| COc1ccccc1CCC(=O)OCC(=O)Nc1c(Br)cc(C)cc1Br | 8.68% |
| CC(C)(C)OC(=O)N1CCC(C(=O)O)CC1 | 0.816% |
| CCOC(=O)CC(NC(=O)c1ccco1)c1ccc(OC)cc1 (stereo not drawn) | 7.84% |
| Clc1ccccc1CONc1ncnc2nonc12 | 2.54% |
| COc1ccc(C2C3=C(Nc4ncnn42)c2ccccc2CCC3)cc1 (stereo not drawn) | -7.09% |
| CCCc1nc(SCC(=O)Nc2ccccc2)c2c(=O)n(C)c(=O)n(C)c2n1 | 5.44% |
| CCOC(=O)c1c(-c2ccccc2)csc1NC(=O)CSc1nnnn1C | -22.7% |
| O=C(Nc1ccccc1C(=O)NCc1cccnc1)c1ccccc1Cl | -8.28% |
| O=C(Nc1ccccc1)Nc1cc(S(=O)(=O)N2CCOCC2)ccc1N1CCCC1 | -71% |
| COC(=O)c1cccc(NC(=O)C(C)(C)C)c1 | 24.2% |
| CC(=O)NCCOc1cccc(OCCNC(C)=O)c1 | -8.16% |
| Cn1c(/C(C#N)=C/c2ccncc2)nc2ccccc21 | -19.2% |
| O=C(OC1CCN(c2ncc(C(F)(F)F)cc2Cl)CC1)c1ccc(Cl)cc1 | 8.55% |
| COC(=O)[C@H](CC(C)C)NC(=O)N1CCN(c2cccc(C(F)(F)F)c2)CC1 | 2.74% |

| Compound | hERG current change (%, negative = inhibition) at 10uM |
| --- | --- |
| OC(CN1CCN(c2ccccn2)CC1)Cn1c2ccc(Cl)cc2c2cc(Cl)ccc21 (stereo not drawn) | 0.599% |
| CC1(C)Cc2ccccc2-c2n[nH]c(=S)n21 | 0.26% |
| O=C(Nc1ccc(Br)cn1)c1cccc2ccccc12 | 12.2% |
| Br.N=C1c2ccccc2CN1NC(=O)COc1ccc(Cl)cc1 | -50.4% |
| COC(=O)c1cc(OC)c(OC)cc1NC(=O)CCc1ccc(C)o1 | 2.64% |
| COC(=O)c1cc(S(=O)(=O)NCC2CCN(Cc3cc(C)ccc3C)CC2)cn1C | -27.5% |
| CC(=O)N1CCN(c2ccc(Nc3nc(C)nc4c3oc3ccccc34)cc2)CC1.Cl | -51.3% |
| COc1ccc(S(=O)(=O)N2CCSC2c2ccc(OC)c(OC)c2)cc1 (stereo not drawn) | -6.55% |
| CCSc1nnc(NC(=O)c2ccccn2)s1 | -0.0332% |
| COc1cc(C(=O)NC(CCSC)C(=O)OCC(=O)C(C)(C)C)cc(OC)c1OC (stereo not drawn) | 7.51% |
| Cc1ccc(-n2[nH]c(C)c(C=NC34CN5CN(CN(C5)C3)C4)c2=O)cc1C | 4.05% |
| COc1nccc(C(F)(F)F)c1C(=O)NC(=O)Nc1ccccc1 | -8.51% |
| CCCn1c2ccccc2c2cnn(CC(=O)N3CCOCC3)c(=O)c21 | -13.7% |
| O=C(Nc1ccc2c(c1)S(=O)(=O)N=C1CCCCCN12)c1ccccc1Cl | 3.13% |
| O=c1c(F)cn(C2CCCO2)c(=O)n1Cc1ccccc1Cl (stereo not drawn) | 9.38% |
| CC1CCc2c(sc3nc(CN4CCOCC4)nc(Sc4ccccc4)c23)C1 (stereo not drawn) | 15.5% |
| O=C(CS(=O)(=O)c1c[nH]c2ccccc12)N1CCc2ccccc21 | -20.3% |
| CC(C)(C)n1cnc(C(N)=O)c1N | 19% |
| CCOC(=O)Cn1nc(C)n(-c2ccc(C)cc2)c1=O | 5.9% |
| COc1ccc(CCN2C(=O)C(Oc3ccccc3)C2c2ccc3c(c2)OCO3)cc1 (stereo not drawn) | -1.84% |
| O=C(CN1C(=O)CSc2ccccc21)NC1CCCC1 | 0.766% |
| O=C(Nc1cc(Cl)ccc1-n1cncn1)c1ccc([N+](=O)[O-])s1 | -27.9% |
| Cc1cc(N/N=C/c2ccncc2)c([N+](=O)[O-])cc1[N+](=O)[O-] | 7.99% |

| Compound | hERG current change (%, negative = inhibition) at 10uM |
| --- | --- |
| COc1ccc(C(=O)CC(=O)C(=O)Nc2ccccc2)cc1 | 12.1% |
| Cc1cc(SCCC(=O)O)nc2c(C)cccc12 | 9.51% |
| CCC(CC)C(=O)Nc1cccc(C(=O)Nc2ccc(S(N)(=O)=O)cc2)c1 | 10.8% |
| O=c1c2ccccc2ccc2ccc(P(=O)(O)O)cc12 | -47.2% |
| COc1cc(C(=O)Oc2cccc(Nc3ncnc4ccccc34)c2)cc(OC)c1OC | 9.05% |
| C/C(=N/NC(=O)c1ccco1)c1ccc(NC(=O)c2ccc(F)cc2)cc1 | 14.5% |
| Cc1cc(S(=O)(=O)NCc2ccccc2)ccc1OCC(=O)NCc1cccnc1 | -23.4% |
| CCOc1cc(/C=C2\NC(=O)NC2=O)ccc1OC(C)C(=O)O (stereo not drawn) | 18.4% |
| CC(=O)Oc1c2occc2cc2ccc(=O)oc12 | 4.96% |
| O=c1[nH]cc(S(=O)(=O)N2CCOCC2)c(=O)[nH]1 | -7.17% |
| Cc1ccc(CNC(=O)CCS(=O)(=O)c2ccc(Br)s2)cc1 | 11.6% |
| CC1(c2ccc3noc(-c4ccc(Cl)cc4)c3c2)OCCO1 | 6.61% |
| O=C(COC(=O)C1CC(=O)N(c2ccccc2)C1)c1ccccc1 (stereo not drawn) | -3.5% |
| Clc1ccc(C2=NCCn3nc4ccccc4c32)cc1 | -7.91% |
| COc1cc(CNCc2ccccc2)cc(Cl)c1OC.Cl | -4.32% |
| CCCNC(=O)NS(=O)(=O)c1cnccc1Sc1ccc(Cl)c(Cl)c1 | 0.164% |
| CCOC(=O)N1C(=O)[C@@](c2ccc(Cl)cc2)(C(C)C)N1C(=O)OCC | 18.8% |
| CCOCCSc1nnc2nc(C)cc(C)n12 | 3.34% |
| Cc1ccc(C2C(=O)NC(=O)NC2=O)cc1 | 23.5% |
| NS(=O)(=O)c1cccc(NS(=O)(=O)c2ccc(/C=C/C(=O)OCC(=O)c3ccccc3)cc2)c1 | 38.2% |
| Cc1cc(C)nc(Nc2nc3ccccc3s2)n1 | 15.2% |
| CCN(CC)S(=O)(=O)c1ccc2c(c1)N(CC(=O)NCc1ccco1)C(=O)CO2 | 7.23% |
| COc1cc2c(cc1OC)C(SC)=NC1(CCCC1)C2 | -0.0979% |

| Compound | hERG current change (%, negative = inhibition) at 10uM |
| --- | --- |
| COc1cccc(O)c1CN1CCC(C(=O)Nc2ccc(-c3cccc(C)c3)cc2)CC1 | -11.2% |
| CCOC(=O)C1=C(C(F)(F)F)Nc2ncnn2C1c1ccc(OC)cc1OC (stereo not drawn) | 31.6% |
| O=C(Cn1c(=O)cnc2ccccc21)NNC(=O)c1ccc(Cl)cc1 | 13.4% |
| COc1cccc(NC(=O)NCc2ccccc2Cl)c1 | 13% |
| CC(C)CCNC(=O)C(=O)Nc1cc2c3c(c1)CCC(=O)N3CCC2 | -6% |
| O=C(COC(=O)/C=C/c1ccccc1)Nc1ccc2c(c1)OCCO2 | -3.37% |
| COC(=O)CN1C(=O)C(O)(CC(=O)c2ccc(Cl)cc2)c2ccccc21 (stereo not drawn) | -4.34% |
| O=c1c2nncn2c2cc(C(F)(F)F)ccc2n1CCNc1ncc(C(F)(F)F)cc1Cl | 9.55% |
| O=C(Nc1ccc(Br)cn1)c1ccc(COc2c(F)c(F)cc(F)c2F)o1 | 7.5% |
| C[C@]12C=CC(=O)C=C1CC[C@@H]1C2C(O)C[C@@]2(C)C1CC[C@]2(O)C(=O)COC(=O)CCC(=O)NC(CC(=O)O)C(=O)O (stereo partly drawn) | 11.4% |
| CN1CCN(S(=O)(=O)c2cccc(C(=O)N(Cc3nnc(-c4ccccc4Cl)o3)C3CC3)c2)CC1 | -4.44% |
| O=C(c1ccc2c(c1)CCN2S(=O)(=O)c1ccccc1)N1CCN(c2ccccc2)CC1 | 3.01% |
| C(#CCN1CCCCC1)COCc1ccccc1.Cl | -9.87% |
| CN(Cc1ccccc1)C(=O)c1cc(=O)[nH]c2ccccc12 | 8.3% |
| CCCCSCCCNC(=O)CCCN1C(=O)c2ccccc2Sc2ncccc21 | -27.6% |
| CC(C)(C)NC(=O)c1cccc(NC(=O)c2ccc3c(c2)C(=O)N(C(C)(C)C)C3=O)c1 | 2.05% |
| COCCNc1oc(/C=C/c2ccccc2OC)nc1S(=O)(=O)c1ccccc1 | 4.27% |
| COc1cc(CNc2nc3ccccc3s2)cc(OC)c1OC | 3.33% |
| Cc1c(NC(=S)NC(=O)c2cc3ccccc3o2)cccc1C(=O)O | 17.3% |
| Cc1cccc(NC(=O)CC23CC4CC(C2)CC(n2nnc(C)n2)(C4)C3)c1 | -20.5% |
| COc1cc(C(=O)Oc2cc(C)[nH]c(=O)c2[N+](=O)[O-])cc(OC)c1OC | 1.42% |

From PMC4336329 (PLoS ONE, 2015)
